Reference: PubChem BioAssay AID504333 (National Center for Advancing Translational Sciences (NCATS), 2011)
Among all 360,000 compounds or so, about 16,000 (4.4%) were called active. Inconclusive results, whose numbers are uncertain, are shown with a selection of clear calls. Calls come from the whole dose curve; as a rule, active = well fitted inhibition curve with a large enough effect; inconclusive = small, poorly fitted or top-dose-only effect; inactive = no such curve, though single readings can be large or run the other way. Potencies of inconclusive entries are doubtful fits and often do not repeat.
% is set by controls: 0 for no effect and ±100 for the full control effect; potency is the fitted concentration of half-maximal effect; tags give direction and shape of the fitted curve.
Note: nearly all actives have a fitted effect of over 60% in size.

What follows are compounds tested against Bromodomain adjacent to zinc finger domain protein 2B (Homo sapiens) (UniProt Q9UIF8) (assay: qHTS Assay for Inhibitors of BAZ2B). Details: AlphaScreen BAZ2B-H3K14Ac peptide displacement; activity change, negative = inhibition: at 114 µM (top of the series).
Chain of UniProt Q9UIF8 (Q9UIF8 whole entry, looked up, the tested form may be a part): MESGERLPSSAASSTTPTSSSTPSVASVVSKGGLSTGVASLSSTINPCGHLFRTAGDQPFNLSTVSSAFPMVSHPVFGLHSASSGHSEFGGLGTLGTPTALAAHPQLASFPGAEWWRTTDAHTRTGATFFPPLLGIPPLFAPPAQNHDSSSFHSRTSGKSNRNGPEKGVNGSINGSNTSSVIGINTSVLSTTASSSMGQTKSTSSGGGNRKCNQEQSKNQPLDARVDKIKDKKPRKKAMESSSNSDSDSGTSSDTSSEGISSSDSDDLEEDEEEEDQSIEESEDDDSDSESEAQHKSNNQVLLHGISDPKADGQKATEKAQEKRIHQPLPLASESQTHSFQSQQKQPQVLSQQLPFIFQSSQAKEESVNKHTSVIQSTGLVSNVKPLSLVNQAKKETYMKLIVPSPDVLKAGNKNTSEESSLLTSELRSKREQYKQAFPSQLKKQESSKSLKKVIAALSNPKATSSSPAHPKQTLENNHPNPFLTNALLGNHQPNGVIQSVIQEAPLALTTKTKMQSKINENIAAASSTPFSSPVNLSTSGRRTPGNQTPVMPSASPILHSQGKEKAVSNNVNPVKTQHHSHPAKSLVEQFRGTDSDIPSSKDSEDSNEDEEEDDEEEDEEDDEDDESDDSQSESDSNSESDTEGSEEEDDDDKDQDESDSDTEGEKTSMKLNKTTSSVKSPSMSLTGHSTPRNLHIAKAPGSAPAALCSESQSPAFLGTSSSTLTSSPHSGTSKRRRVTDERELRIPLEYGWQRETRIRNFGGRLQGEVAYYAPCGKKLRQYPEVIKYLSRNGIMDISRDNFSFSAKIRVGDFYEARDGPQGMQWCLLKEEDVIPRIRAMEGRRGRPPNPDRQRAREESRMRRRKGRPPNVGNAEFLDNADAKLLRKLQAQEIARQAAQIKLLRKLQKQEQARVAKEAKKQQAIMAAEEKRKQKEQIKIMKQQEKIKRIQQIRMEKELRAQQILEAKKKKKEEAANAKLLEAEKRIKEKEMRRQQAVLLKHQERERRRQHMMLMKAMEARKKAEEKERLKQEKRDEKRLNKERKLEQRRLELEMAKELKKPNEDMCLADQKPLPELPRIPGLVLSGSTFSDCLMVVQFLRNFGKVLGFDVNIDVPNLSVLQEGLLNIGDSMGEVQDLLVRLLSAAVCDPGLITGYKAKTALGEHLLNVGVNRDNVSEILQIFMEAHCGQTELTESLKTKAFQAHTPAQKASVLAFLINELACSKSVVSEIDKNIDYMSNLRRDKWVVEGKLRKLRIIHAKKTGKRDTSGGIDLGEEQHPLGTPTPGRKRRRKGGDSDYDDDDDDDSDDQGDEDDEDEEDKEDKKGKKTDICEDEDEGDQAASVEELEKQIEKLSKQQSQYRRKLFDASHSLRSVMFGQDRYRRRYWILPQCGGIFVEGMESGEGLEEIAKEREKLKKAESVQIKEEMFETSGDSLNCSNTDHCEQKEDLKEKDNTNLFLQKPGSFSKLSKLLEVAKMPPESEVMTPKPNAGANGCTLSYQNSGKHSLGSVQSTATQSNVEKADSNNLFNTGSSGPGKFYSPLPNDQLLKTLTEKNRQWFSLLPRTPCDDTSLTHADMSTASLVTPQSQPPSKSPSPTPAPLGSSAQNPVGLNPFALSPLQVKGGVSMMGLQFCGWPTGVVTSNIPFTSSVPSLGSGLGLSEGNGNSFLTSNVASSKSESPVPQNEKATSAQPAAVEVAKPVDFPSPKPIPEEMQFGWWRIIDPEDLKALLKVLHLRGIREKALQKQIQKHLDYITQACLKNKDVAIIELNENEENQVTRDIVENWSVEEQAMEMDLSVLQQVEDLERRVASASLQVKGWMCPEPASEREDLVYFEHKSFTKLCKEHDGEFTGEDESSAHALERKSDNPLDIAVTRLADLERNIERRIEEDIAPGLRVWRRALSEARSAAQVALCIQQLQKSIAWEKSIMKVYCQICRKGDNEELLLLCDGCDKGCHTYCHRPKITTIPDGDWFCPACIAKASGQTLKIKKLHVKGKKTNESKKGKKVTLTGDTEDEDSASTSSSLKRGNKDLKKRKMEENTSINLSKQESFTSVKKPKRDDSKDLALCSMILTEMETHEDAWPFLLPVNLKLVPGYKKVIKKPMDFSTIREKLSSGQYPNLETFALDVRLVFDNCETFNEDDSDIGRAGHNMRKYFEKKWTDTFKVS
Method in brief: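 BAZ2B 50 nM plus b-H3(5-23)K14Ac 50 nM, PBS pH 7.4/0.01% Tween-20, 30 min RT; compound added (max 110 uM), 30 min RT; streptavidin donor/Ni-chelate acceptor beads 10 ug/mL final, 20 min dark; AlphaScreen read.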
`CCOC(=O)C1(CCOc2ccccc2)CCN(Cc2cnc(SC)nc2)CC1` was tested, and the Potency was inconclusive: 89.1 µM [inhibitor, single point].
`CN1CCN(c2ccc(N)c(N3CCN(C)CC3)c2)CC1` was tested, and the Potency was inconclusive: 79.4 µM [inhibitor, single point].
`CN1C(=O)N(C)C(=O)C(CCc2ccncc2)(Cc2ccc3c(c2)OCO3)C1=O` was tested, and the Potency was inconclusive: 100 µM [inhibitor, single point].
In the case of `CCOC(=O)c1ccc(-n2c(N)c(C(=O)NCC3CCCO3)sc2=S)cc1` (stereo not drawn), the Potency is reported as inconclusive: 89.1 µM [inhibitor, single point].
With `CCC(C)n1c(O)c(/C=N/Nc2ccccc2)c(=O)[nH]c1=S` (stereo not drawn) the Potency was inconclusive: 39.8 µM [inhibitor, partial curve].
With `CC(=O)n1cc(C=C2C(=O)NC(=O)NC2=O)c2ccccc21` the “activity change, negative = inhibition” value was inactive: -15.9%.
For `O=C(Nc1nnc(-c2ccco2)o1)c1cccc2ccccc12`, the Potency was inconclusive: 89.1 µM [inhibitor, single point].
`C1CC2OC2CC1C1CO1` (stereo not drawn) was tested, and the Potency was inconclusive: 89.1 µM [inhibitor, single point].
For `COc1ccc(N2CCN(Cc3nc4c(c(=O)[nH]c(=O)n4C)n3Cc3ccc(Cl)cc3)CC2)cc1`, the Potency was inconclusive: 79.4 µM [inhibitor, single point].
In the case of `O=S1(=O)N(CCN2CC=C(c3c[nH]c4cc(F)ccc34)CC2)c2cccc3c2N1CCC3`, the Potency is reported as inconclusive: 44.7 µM [inhibitor, partial curve].
`CC(=NCCN1CCOCC1)c1c(O)n(-c2ccccc2C)c(=O)[nH]c1=O` was tested, and the “activity change, negative = inhibition” value was inactive: 3.37%.
For `COc1ccc(CNCCc2c[nH]c3ccccc23)cc1OC`, the Potency was active: 50.1 µM.
With `COc1ccc(Br)cc1CNCCc1cccc(Cl)c1` the Potency was inconclusive: 89.1 µM [inhibitor, single point].
For `CN1C(=O)C(c2ccc([N+](=O)[O-])cc2[N+](=O)[O-])C(=O)N(C)C1=O`, the Potency was active: 50.1 µM.
`C=CCn1c(O)c(C(CC)=Nc2ccccc2NC(=O)CC)c(=O)[nH]c1=O` was tested, and the Potency was inconclusive: 89.1 µM [inhibitor, single point].
For `COc1ccc(CCNCc2ccc(C)s2)cc1OC`, the “activity change, negative = inhibition” value was inactive: -18.5%.
With `OCCNCCc1c[nH]c2ccc(OCc3ccccc3)cc12` the Potency was inconclusive: 44.7 µM [inhibitor, partial curve].
`O=C1NC(=O)N(c2ccc(F)cc2)C(=O)/C1=C/c1ccc2c(c1)CCCN2Cc1ccccc1` was tested, and the Potency was inconclusive: 89.1 µM [inhibitor, single point].
With `CCOc1cccc(CNCCc2c(C)[nH]c3ccc(OC(F)(F)F)cc23)c1O` the Potency was active: 35.5 µM.
For `COc1ccccc1N1CCN(S(=O)(=O)c2ccc3c(c2)oc(=O)n3C)CC1`, the Potency was inconclusive: 89.1 µM [inhibitor, single point].
For `Nc1c(C(=O)NCc2ccco2)c2nc3ccccc3nc2n1Cc1ccccc1`, the “activity change, negative = inhibition” value was inactive: 8.23%.
`O=P1(NCCCn2cc[n+](Cc3nc4ccccc4[nH]3)c2)C=C(c2ccccc2)OC(c2ccccc2)=C1` was tested, and the Potency was inconclusive: 79.4 µM [inhibitor, partial curve].
`Cc1oc(-c2ccc(Cl)cc2)nc1CN1C(=O)CN=C(c2ccccc2)c2ccccc21` was tested, and the “activity change, negative = inhibition” value was inactive: -3.66%.
For `O=C(CSc1ccc(Cl)cc1)NC1=NN(c2ccccc2)C(=O)C1`, the Potency was inconclusive: 35.5 µM [inhibitor, partial curve].
`CCN(CC)C(=O)c1ccc2c(c1)C1C(Cl)C(Sc3ccccc3[N+](=O)[O-])CC1C(C(=O)O)N2` (stereo not drawn) was tested, and the Potency was active: 20 µM.
With `COc1ccccc1N1CCN(Cc2ccccc2Cl)CC1` the Potency was active: 35.5 µM.
With `CCOc1cccc(OCCOCCN2CCCC2)c1` the Potency was inconclusive: 89.1 µM [inhibitor, single point].
`CCCCn1c(O)c(C(C)=NCCN2CCOCC2)c(=O)[nH]c1=O` was tested, and the “activity change, negative = inhibition” value was inactive: 13.4%.
For `COc1ccc(N2C(=O)/C(=C/c3ccc(N(C)C)o3)C(=O)NC2=S)cc1`, the Potency was inconclusive: 50.1 µM [inhibitor, partial curve].
`O=C(O)C(Br)CBr` (stereo not drawn) was tested, and the Potency was inconclusive: 89.1 µM [inhibitor, single point].
In the case of `CN(C)CCN=Cc1c(O)n(Cc2ccco2)c(=O)[nH]c1=O`, the Potency is reported as inconclusive: 89.1 µM [inhibitor, single point].
`O=C(N/N=C1/CN2CCC1CC2)c1cccc(O)c1` was tested, and the Potency was inconclusive: 89.1 µM [inhibitor, single point].
With `CC(=O)Nc1ccc(OC(=O)N(C)C)cc1` the “activity change, negative = inhibition” value was inactive: 18.3%.
For `CCc1ccc(N2NC(=O)/C(=C/C=C/c3ccco3)C2=O)cc1`, the Potency was inconclusive: 31.6 µM [inhibitor, partial curve].
`O=[N+]([O-])c1ccc(CN2CCN(c3ccc(Cl)cc3)CC2)o1` was tested, and the Potency was active: 44.7 µM.
In the case of `c1ccc(CN2CCN(Cc3ccc4ccccc4c3)CC2)cc1`, the Potency is reported as active: 28.2 µM.
`C=CCN1C(=O)/C(=C/c2cccs2)C(=O)NC1=S` was tested, and the Potency was inconclusive: 79.4 µM [inhibitor, single point].
With `O=c1[nH]c(=S)n(-c2ccc(Cl)cc2)c(O)c1C=Nc1ccc(N2CCOCC2)cc1` the Potency was inconclusive: 79.4 µM [inhibitor, single point].
In the case of `O=C(/C=C/c1ccc2c(c1)OCO2)c1c(O)n(CCc2ccccc2)c(=O)[nH]c1=O`, the “activity change, negative = inhibition” value is reported as inactive: -0.836%.
With `CCOc1ccc(C2CC(c3c(O)n(C)c(=O)n(C)c3=O)=NN2)cc1` (stereo not drawn) the Potency was inconclusive: 89.1 µM [inhibitor, single point].
With `Cn1cc(C(=O)OCC(=O)NC2(C#N)CCCCC2)c2ccccc21` the “activity change, negative = inhibition” value was inactive: -7.45%.
In the case of `O=[N+]([O-])c1cccc(CN2CCN(Cc3ccc(Br)cc3)CC2)c1`, the Potency is reported as active: 20 µM.
In the case of `c1ccc2c(CCNCc3ccc4c(c3)OCO4)c[nH]c2c1`, the Potency is reported as inconclusive: 50.1 µM [inhibitor, partial curve].
With `CN1CN=C(N[N+](=O)[O-])N(Cc2ccco2)C1` the “activity change, negative = inhibition” value was inactive: -31.5%.
In the case of `CC(C)CNC(=O)c1c(N)n(Cc2ccco2)c2nc3ccccc3nc12`, the “activity change, negative = inhibition” value is reported as inactive: 21.2%.
In the case of `CCN1CCN(CC(c2ccccc2)c2ccccc2)CC1`, the Potency is reported as active: 10 µM.
For `CCn1c(N)c(C(=O)NC)sc1=S`, the Potency was inconclusive: 50.1 µM [inhibitor, partial curve].
For `CC(C)Sc1nnc([C@@H](N)Cc2c[nH]c3ccccc23)o1`, the Potency was inconclusive: 79.4 µM [inhibitor, single point].
With `CCCCc1nc(N2CCNCC2)c(C#N)c2c1CSC(C)(C)C2` the “activity change, negative = inhibition” value was inactive: -25.8%.
For `COc1cc(C)c(CN2CCN(c3ccccc3)CC2)cc1C`, the Potency was inconclusive: 89.1 µM [inhibitor, single point].
In the case of `Cc1cccc(N2C(=O)NC(=O)/C(=C\c3cc(C)n(-c4sc5c(c4C#N)CCCC5)c3C)C2=O)c1C`, the Potency is reported as inconclusive: 39.8 µM [inhibitor, partial curve].
In the case of `CCOC(=O)c1c(-n2c(C)cc(C=C3C(=O)NC(=O)NC3=O)c2C)sc2c1CCCC2`, the “activity change, negative = inhibition” value is reported as inactive: 4.85%.
With `Nc1ccc2c3c(cccc13)CC2` the Potency was inconclusive: 44.7 µM [inhibitor, partial curve].
With `COc1ccc(-n2c(CNCCc3ccc(C)cc3)nc3ccccc3c2=O)cc1` the Potency was inconclusive: 70.8 µM [inhibitor, single point].
With `COc1ccccc1CN1CCCCC1c1cccnc1` (stereo not drawn) the Potency was inconclusive: 89.1 µM [inhibitor, single point].
`O=c1oc2ccccc2c(O)c1C(c1ccc([N+](=O)[O-])cc1)c1c(O)c2ccccc2oc1=O` was tested, and the Potency was active: 56.2 µM.
With `O=C(C1CC(=O)N(C2CCCC2)C1)N1CCC2(CC1)OCCO2` (stereo not drawn) the Potency was inconclusive: 89.1 µM [inhibitor, single point].
In the case of `COc1ccc(-c2oc(=O)n(C)c2-c2ccc(OC)cc2)cc1`, the Potency is reported as active: 31.6 µM.
In the case of `Cc1ccc(/C=C2\C(=O)NC(=O)N(CC3CCCO3)C2=O)s1` (stereo not drawn), the Potency is reported as inconclusive: 70.8 µM [inhibitor, partial curve, poor fit].
With `C[Se]C[C@@H](N)C(=O)O` the Potency was inconclusive: 89.1 µM [inhibitor, single point].
In the case of `CCOC(=O)[C@@]1(C#N)C(c2ccc(Cl)c(Cl)c2)[C@H](C(N)=O)N2C=C(C(C)=O)C=C[C@H]21` (stereo partly drawn), the Potency is reported as inconclusive: 44.7 µM [inhibitor, partial curve].
For `CCOC(=O)c1sc(/N=C/c2c(O)n(-c3ccccc3)c(=O)[nH]c2=O)c(C#N)c1C`, the Potency was inconclusive: 89.1 µM [inhibitor, single point].
With `Fc1ccc(CNCCc2c[nH]c3ccccc23)cc1` the Potency was inconclusive: 39.8 µM [inhibitor, partial curve].
In the case of `O=C(c1cccs1)c1cn(Cc2ccccc2Cl)c2ccccc12`, the “activity change, negative = inhibition” value is reported as inactive: -1.02%.
With `COc1cc(C(c2c(C)[nH]n(-c3ccccc3)c2=O)c2c(C)[nH]n(-c3ccccc3)c2=O)cc(OC)c1OC` the Potency was active: 44.7 µM.
In the case of `O=C1NC(=O)N(Cc2ccco2)C(=O)/C1=C\c1ccc(-c2ccc(F)cc2)o1`, the Potency is reported as inconclusive: 39.8 µM [inhibitor, partial curve].
For `CC1(O)CCN2C(=O)CCc3cccc1c32` (stereo not drawn), the “activity change, negative = inhibition” value was inactive: -35.3%.
`NC(N)=N/N=C/c1cn(-c2ccccc2)nc1-c1cccs1` was tested, and the Potency was inconclusive: 56.2 µM [inhibitor, partial curve].
`CCCCn1c(O)c(C(C)=Nc2ccc(C(=O)O)cc2)c(=O)[nH]c1=O` was tested, and the Potency was inconclusive: 89.1 µM [inhibitor, single point].
With `COc1cc2c(cc1O)C[C@H]1c3c(cc(O)c(OC)c3-2)CCN1C` the “activity change, negative = inhibition” value was inactive: 1.34%.
`O=Cc1ccc(O)c(O)c1` was tested, and the Potency was active: 56.2 µM.
For `O=C1NC(=O)N(c2cccc(Cl)c2)C(=O)/C1=C\c1ccc(Sc2nc3ccccc3[nH]2)o1`, the Potency was active: 35.5 µM.
`N#CC(C#N)=NNc1ccc(-n2ccc(C(F)(F)F)n2)cc1` was tested, and the Potency was active: 31.6 µM.
